According to PubChem BioAssay AID588855 (National Center for Advancing Translational Sciences (NCATS), 2011):
The campaign covered roughly 410,000 compounds. About 5,000 (1.2%) were called active. Inconclusive results, whose numbers are uncertain, are shown with a selection of clear calls. Calls come from the whole dose curve; as a rule, active = well fitted inhibition curve with a large enough effect; inconclusive = small, poorly fitted or top-dose-only effect; inactive = no such curve, though single readings can be large or run the other way. Potencies of inconclusive entries are doubtful fits and often do not repeat.

Experiment: qHTS for Inhibitors of TGF-b; note: nearly all actives have a fitted effect of over 65% in size
Conditions: HepG2 CAGA-GFP TGF-b/SMAD3 reporter, GFP fluorescence, 18 h, TGF-beta stimulated, 500 pg/mL final; series mostly up to 46.1 µM; activity, negative = inhibition: at the top concentration
Method in brief: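 Using HEPG2 CAGA-GFP reporter cells at 1000 cells/well, we pinned test compounds, stimulated with recombinant TGF-beta (500 pg/mL final) and measured total well GFP after 18 h.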
% is set by controls: 0 for no effect and ±100 for the full control effect; potency is the fitted concentration of half-maximal effect; tags give direction and shape of the fitted curve.

Compound	Potency	activity, negative = inhibition
COc1cccc(-c2nn[nH]n2)c1O	inconclusive: 35.5 µM [inhibitor, single point]	–
CSc1nnc(-c2ccccc2Cl)n1N	inconclusive: 35.5 µM [inhibitor, single point]	–
COc1ccc(Cl)cc1CC1(C)C(=O)Nc2c(Cl)cccc21 (stereo not given)	inconclusive: 10 µM [inhibitor, partial curve]	–
Cc1ccc([N+](=O)[O-])c2cccnc12	–	inactive: -17%
COc1cc2c(cc1OC)C(SC)=NC1(CCCC1)C2	inconclusive: 17.8 µM [inhibitor, single point]	–
Cc1ccc(-n2nnnc2SCC(=O)NC2CCCc3ccccc32)cc1 (stereo not given)	–	inactive: -19.1%
O=C(c1ccccc1)N1CCCCC(S(=O)(=O)c2ccc3ccccc3c2)C1=O (stereo not given)	inconclusive: 1 µM [inhibitor, full curve, poor fit]	–
Cc1cc(C)c(S(=O)(=O)NCC2CCC(C(=O)NCCc3ccccc3)CC2)c(C)c1 (stereo not given)	inconclusive: 3.55 µM [inhibitor, single point]	–
Fc1cccc(Cc2c(-c3ccccc3)nc3ccc(Cl)cn23)c1	inconclusive: 35.5 µM [inhibitor, single point]	–
O=S(=O)(c1cccc(Cl)c1)n1c(/C=C/c2ccccc2Cl)nc2ccccc21	inconclusive: 15.8 µM [inhibitor, single point]	–
O=c1n(Cc2ccccc2)nc2n1-c1cc(Cl)ccc1OC2	inconclusive: 11.2 µM [inhibitor, single point]	–
CN(C)Cc1cc(C(F)(F)F)ccc1C(O)(c1ccccc1)c1ccccc1	inconclusive: 22.4 µM [inhibitor, single point]	–
COc1ccc(Cn2nnc3c(=O)[nH]c(C4CCN(S(=O)(=O)c5ccc(C)cc5)CC4)nc32)cc1	inconclusive: 35.5 µM [inhibitor, single point]	–
S=C(Nc1ccc(Br)cc1Cl)Nn1cnnc1	–	inactive: -12.2%
COc1ccc(-c2cc3nc(C)c(CCC(=O)NCc4ccc(F)cc4)c(C)n3n2)c(OC)c1	inconclusive: 15.8 µM [inhibitor, single point]	–
Cc1cc(Cl)ccc1NS(=O)(=O)c1c(C(=O)N2CCCCCC2)c(C)n(C)c1C	inconclusive: 20 µM [inhibitor, partial curve, poor fit]	–
COc1ccccc1-c1cc(C(F)(F)F)nc(S(=O)(=O)CCCC(=O)NCc2ccc(F)cc2)n1	inconclusive: 10 µM [inhibitor, partial curve, poor fit]	–
Cc1cccc(N2CCN(Cc3nc(-c4cccc(Oc5ccccc5)c4)oc3C)CC2)n1	inconclusive: 5.01 µM [inhibitor, partial curve, poor fit]	–
O=C(Cn1cc(SCc2ccc(Cl)cc2)c2ccccc21)N1CCOCC1	inconclusive: 1.41 µM [inhibitor, full curve, poor fit]	–
CCCc1nn2c(=O)cc(COC(=O)c3cccc(NC(=O)c4ccc(OCC)cc4)c3)nc2s1	inconclusive: 3.98 µM [inhibitor, single point]	–

Compound	Potency	activity, negative = inhibition
COC(=O)c1c(-c2ccccc2)c[nH]c1C	–	inactive: 24%
S=C(Nc1ccc(Oc2ccccc2)cc1)NC1CCCCCC1	inconclusive: 35.5 µM [inhibitor, single point]	–
COc1cc(C2c3c(-c4cc(C)ccc4O)n[nH]c3C(=O)N2Cc2ccco2)cc(OC)c1OC (stereo not given)	inconclusive: 0.398 µM [inhibitor, partial curve, poor fit]	–
O=C(Nc1ccc(S(=O)(=O)N2CCCCC2)cc1)C1CC(=O)N(c2ccc(Cl)cc2)C1 (stereo not given)	inconclusive: 11.2 µM [inhibitor, single point]	–
COc1ccccc1NC(=O)CN1C(=O)NC(C)(C)C1=O	inconclusive: 0.708 µM [inhibitor, partial curve, poor fit]	–
CC(=O)c1ccc(OCC(=O)NC2CCCCCC2)cc1	inconclusive: 14.1 µM [inhibitor, partial curve, poor fit]	–
O=C(NCc1cccc(C(F)(F)F)c1)c1csc([C@@H]2O[C@H](CO)[C@H](O)[C@H](O)[C@H]2O)n1	–	inactive: -2.88%
COc1ccc(CCNc2ccc(C(CC(N)=O)NC(=O)c3cc(OC)ccc3OC)cc2[N+](=O)[O-])cc1 (stereo not given)	inconclusive: 8.91 µM [inhibitor, partial curve, poor fit]	–
Cc1ccc2occ(CC(=O)N(Cc3ccc(Cl)cc3)Cc3ccco3)c2c1	active: 15.8 µM	–
Cc1ccc(N2C(=O)[C@@H]3CSC(c4ccc(Cl)cc4)N3C2=O)cc1 (stereo not given in full)	inconclusive: 35.5 µM [inhibitor, single point]	–
O=C(NC(=S)Nc1ccc(S(=O)(=O)Nc2nccs2)cc1)c1ccc(F)cc1	inconclusive: 22.4 µM [inhibitor, single point]	–
COc1cc(C2CC(=O)Nc3ccc4ccccc4c32)ccc1OC(=O)C(C)C (stereo not given)	inconclusive: 11.2 µM [inhibitor, single point]	–
O=C(Cn1nc(C(=O)O)c2ccccc2c1=O)c1cc(F)ccc1F	inconclusive: 15.8 µM [inhibitor, single point]	–
CCO[C@H]1OC(C(=O)N2CCN(Cc3ccc4c(c3)OCO4)CC2)=C[C@@H](c2ccc(C(F)(F)F)cc2)[C@@H]1CCCO	inconclusive: 35.5 µM [inhibitor, single point]	–
Cc1c(C)c(C)c(S(=O)(=O)NCCc2ccncc2)c(C)c1C	inconclusive: 35.5 µM [inhibitor, single point]	–
Cc1cc(C)c(Cn2c(=O)n(CCC(=O)NCc3ccc4c(c3)OCO4)c(=O)c3ccccc32)c(C)c1	–	inactive: -0.825%
O=C(c1cccs1)N1C[C@@H](n2cc(C3CC3)nn2)[C@H](O)C[C@@H]1c1ccccc1	–	inactive: -8.93%
O=C(Nc1ccc(N2CCOCC2)cc1)c1cc(-c2ccncc2)nc2ccccc12	inconclusive: 22.4 µM [inhibitor, single point]	–
CCN1CCN(C(=O)c2ccc(CNS(=O)(=O)c3cccc(OC)c3)cc2)CC1	–	inactive: 16.3%
O=[N+]([O-])c1ccc(NC2CCN(Cc3ccccc3)CC2)c([N+](=O)[O-])c1	inconclusive: 35.5 µM [inhibitor, single point]	–
